Assay results as given in PubChem BioAssay (NCATS).
Where “and” joins values, the source holds several entries; their conditions need not be identical. Equal entries are not always repeated. Inconclusive means that the source gave no clear call. Such entries were picked first, then a sample of the others. Potencies of inconclusive entries are doubtful fits and often do not repeat. Calls of active or inactive are those of the source. Calls follow the shape of the dose curve; as a rule, active = well fitted inhibition curve with a large enough effect; inconclusive = small, poorly fitted or top-dose-only effect; inactive = flat fitted curve, though single readings scatter.

Each molecule was assayed on Zika virus NS2B-NS3 protease (assay: Primary screen GU AMC qHTS for Zika virus inhibitors (AID 1347154; also: nearly all actives have a fitted effect of over 70% in size;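 as to activity change, negative = inhibition: 0% = no-inhibitor control and -100% = no-enzyme control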)). Conditions: Zika NS2B-NS3 unlinked protease, AMC fluorogenic substrate; series mostly up to 54.1 µM; activity change, negative = inhibition: at the top concentration.
Procedure, shortened: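 Fluorogenic AMC-substrate cleavage by noncovalent NS2B-NS3 protease complex (25 nM, pH 8.0 Tris buffer with Tween 20) followed for 15 minutes at room temperature (~20% conversion). Percent inhibition from ex340/em450 signal change, fitted by 4-parameter Hill equation.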
Potency is read from the fitted curve at half-maximal effect; tags tell the direction and shape of the fitted curve.

Structure (SMILES) | Potency | activity change, negative = inhibition
C=C(C)[C@@H]1CC[C@]2(C)CC[C@]3(C)[C@H](CC[C@@H]4[C@@]5(C)CC[C@H](O)C(C)(C)[C@H]5CC[C@]43C)[C@@H]12 | inconclusive: 15.2 µM [inhibitor, single point] | 
CC[C@H]1OC(=O)[C@H](C)C(=O)[C@H](C)[C@@H](O[C@H]2O[C@H](C)C[C@H](N(C)C)[C@@H]2O)[C@](C)(OC)C[C@@H](C)C(=O)[C@H](C)[C@H]2N(CCCCn3cnc(-c4cccnc4)c3)C(=O)O[C@]12C | inconclusive: 42.9 µM [inhibitor, single point] | 
CN1C(C(=O)Nc2ccccn2)=C(O)c2ccccc2S1(=O)=O | inconclusive: 2.41 µM [inhibitor, partial curve, poor fit] | 
O=C(Nc1ccccc1Br)N[C@@H]1CCN(c2ccc(C(F)(F)F)cn2)C1 | inconclusive: 7.64 µM [inhibitor, full curve] | 
O=C(O)C1=NC(C(=O)O)CC(C=CN2c3cc(O)c(OC4OC(CO)C(O)C(O)C4O)cc3CC2C(=O)O)=C1 (stereo not given) | inconclusive: 4.82 µM [inhibitor, partial curve, poor fit] | 
CN(CCOc1ccc(CC2SC(=O)NC2=O)cc1)c1ccccn1 (stereo not given) | inconclusive: 21.5 µM [inhibitor, partial curve] | 
Cc1cc(O)c2c(c1)C(=O)c1cccc(O)c1C2=O |  | inactive: 6.61%
COc1cc([C@H]2Oc3cc([C@H]4Oc5cc(O)cc(O)c5C(=O)[C@H]4O)ccc3O[C@H]2CO)ccc1O | inconclusive: 7.64 µM [inhibitor, partial curve, poor fit] | 
CCOC(CN1C(=O)[C@](CC(=O)Nc2ccc(C)cc2)(NC(=O)Nc2ccc(C)cc2)c2ccccc21)OCC |  | inactive: -14.3%
c1cc(-c2sc(-c3ccncc3)c(-c3ccncc3)c2-c2ccncc2)ccn1 |  | inactive: -0.495%
CC(C)(C)c1nc(-c2cccc(NS(=O)(=O)c3c(F)cccc3F)c2F)c(-c2ccnc(N)n2)s1 | inconclusive: 42.9 µM [inhibitor, single point] | 
CCCCc1ccc(NS(=O)(=O)c2ccc(C)c(C(=O)N3CCN(c4cccc(C)c4C)CC3)c2)cc1 | inconclusive: 8.57 µM [inhibitor, full curve] | 
C[C@]12CC[C@@H]3c4ccc(O)cc4C[C@@H](CCCCCCCCCS(=O)CCCC(F)(F)C(F)(F)F)[C@H]3[C@H]1CC[C@H]2O (stereo not given in full) | inconclusive: 0.171 µM [inhibitor, full curve, poor fit] | 
CC(=O)OCC(=O)[C@@]12N=C(C)O[C@H]1C[C@H]1[C@@H]3CCC4=CC(=O)C=C[C@]4(C)[C@@H]3[C@@H](O)C[C@@]12C |  | inactive: -0.407%
Clc1ccc(C(Cn2ccnc2)OCc2c(Cl)cccc2Cl)c(Cl)c1 (stereo not given) | inconclusive: 15.8 µM [inhibitor, partial curve, poor fit] and inconclusive: 19.2 µM [inhibitor, partial curve] | 
Cc1cc(=O)c2c(O)c3c(O)cc(=O)c4c3c3c(cc(O)c1c23)C(C)(C)C=4O | inconclusive: 4.29 µM [inhibitor, full curve] | 
CC1(C)[C@H](O[C@H]2O[C@H](C(=O)O)[C@@H](O)[C@H](O)[C@H]2O[C@@H]2O[C@H](C(=O)O)[C@@H](O)[C@H](O)[C@H]2O)CC[C@@]2(C)[C@H]1CC[C@]1(C)[C@H]2C(=O)C=C2[C@H]3C[C@@](C)(C(=O)O)CC[C@]3(C)CC[C@]21C |  | inactive: 9.9%
CO[C@H]1C=CO[C@@]2(C)Oc3c(C)c(O)c4c(O)c(c(C=NN5CCN(C)CC5)c(O)c4c3C2=O)NC(=O)C(C)=CC=C[C@H](C)[C@H](O)[C@@H](C)[C@@H](O)[C@@H](C)[C@H](OC(C)=O)[C@H]1C | inconclusive: 1.55 µM [inhibitor, partial curve] | 

Structure (SMILES) | Potency | activity change, negative = inhibition
CNC(=O)c1cc(Oc2ccc(NC(=O)Nc3ccc(Cl)c(C(F)(F)F)c3)c(F)c2)ccn1 | inconclusive: 19.2 µM [inhibitor, partial curve] | 
CCCCCCCCCCCCCCCC(=O)OC[C@@H](NC(=O)C(Cl)Cl)[C@H](O)c1ccc([N+](=O)[O-])cc1 |  | inactive: -8.72%
CN(C)Cc1ccc(-c2nc3cccc4c3n2CCNC4=O)cc1 | inconclusive: 27.1 µM [inhibitor, single point] | 
Cc1cc(=O)oc2cc(O)ccc12 | inconclusive: 11.2 µM [inhibitor, partial curve, poor fit] and inconclusive: 607 nM [inhibitor, full curve, poor fit] | 
COc1ccc(CC2SC(=O)NC2=O)cc1C(=O)NCc1ccc(C(F)(F)F)cc1 (stereo not given) | inconclusive: 24.1 µM [inhibitor, partial curve, poor fit] | 
O=C1NC(=O)C(=Cc2cccc(C(F)(F)F)c2)S1 | inconclusive: 27.1 µM [inhibitor, single point] | 
c1ccc2c(-c3cnn4cc(-c5ccc(N6CCNCC6)cc5)cnc34)ccnc2c1 | inconclusive: 24.1 µM [inhibitor, partial curve] | 
O=c1[nH]c(=O)n([C@H]2C[C@@H](O)[C@@H](CO)O2)cc1F |  | inactive: 6.03%
COc1cccc([C@@H](C)NCCCc2ccccc2Cl)c1 | inconclusive: 6.07 µM [inhibitor, full curve] | 
O=C(NOCC(O)CO)c1cc(Br)c(F)c(F)c1Nc1ccc(I)cc1F (stereo not given) | inconclusive: 19.2 µM [inhibitor, partial curve] | 
O=c1cc(N2CCOCC2)oc2c(-c3cccc4c3sc3ccccc34)cccc12 | inconclusive: 6.81 µM [inhibitor, partial curve] | 
CC(C)Nc1cc(C(F)(F)F)cc2nc(NC(=O)c3cccnc3)nn12 |  | inactive: 3.95%
OC[C@H]1O[C@@H](Oc2ccc(O)cc2)[C@H](O)[C@@H](O)[C@H]1O |  | inactive: -3.28%
Cc1ccc(O)c(C(CCN(C(C)C)C(C)C)c2ccccc2)c1 (stereo not given) |  | inactive: 6.1%
COc1ccc2c(c1)CC[C@H]1[C@@H]2CC[C@]2(C)[C@@H](NCCCCCCN3C(=O)C=CC3=O)CC[C@H]12 |  | inactive: -1.52%
COC1CCC(N(C(=O)C2CCC(C)CC2)c2cc(C3=CCCCC3)sc2C(=O)O)CC1 (stereo not given) | inconclusive: 24.1 µM [inhibitor, partial curve] | 
N#CC(=Cc1ccc(O)c(O)c1)C(=O)NCc1ccccc1 | inconclusive: 7.64 µM [inhibitor, full curve] | 
